Molecules are shown by their SMILES. About 14,000 (4.5%) of roughly 310,000 compounds showed an effect of 50% or more. The effect is printed as a negative number. The list shows a part of the results.
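Note: peak tail current of the secondary pulse compared with the same well before compound.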

This experiment deals with human ether-à-go-go-related gene (hERG) potassium channel (human, UniProt Q12809). Put plainly: primary screen, population patch clamp on CHO cells stably expressing hERG.
Sequence of human ether-à-go-go-related gene (hERG) potassium channel (Q12809 whole entry, looked up): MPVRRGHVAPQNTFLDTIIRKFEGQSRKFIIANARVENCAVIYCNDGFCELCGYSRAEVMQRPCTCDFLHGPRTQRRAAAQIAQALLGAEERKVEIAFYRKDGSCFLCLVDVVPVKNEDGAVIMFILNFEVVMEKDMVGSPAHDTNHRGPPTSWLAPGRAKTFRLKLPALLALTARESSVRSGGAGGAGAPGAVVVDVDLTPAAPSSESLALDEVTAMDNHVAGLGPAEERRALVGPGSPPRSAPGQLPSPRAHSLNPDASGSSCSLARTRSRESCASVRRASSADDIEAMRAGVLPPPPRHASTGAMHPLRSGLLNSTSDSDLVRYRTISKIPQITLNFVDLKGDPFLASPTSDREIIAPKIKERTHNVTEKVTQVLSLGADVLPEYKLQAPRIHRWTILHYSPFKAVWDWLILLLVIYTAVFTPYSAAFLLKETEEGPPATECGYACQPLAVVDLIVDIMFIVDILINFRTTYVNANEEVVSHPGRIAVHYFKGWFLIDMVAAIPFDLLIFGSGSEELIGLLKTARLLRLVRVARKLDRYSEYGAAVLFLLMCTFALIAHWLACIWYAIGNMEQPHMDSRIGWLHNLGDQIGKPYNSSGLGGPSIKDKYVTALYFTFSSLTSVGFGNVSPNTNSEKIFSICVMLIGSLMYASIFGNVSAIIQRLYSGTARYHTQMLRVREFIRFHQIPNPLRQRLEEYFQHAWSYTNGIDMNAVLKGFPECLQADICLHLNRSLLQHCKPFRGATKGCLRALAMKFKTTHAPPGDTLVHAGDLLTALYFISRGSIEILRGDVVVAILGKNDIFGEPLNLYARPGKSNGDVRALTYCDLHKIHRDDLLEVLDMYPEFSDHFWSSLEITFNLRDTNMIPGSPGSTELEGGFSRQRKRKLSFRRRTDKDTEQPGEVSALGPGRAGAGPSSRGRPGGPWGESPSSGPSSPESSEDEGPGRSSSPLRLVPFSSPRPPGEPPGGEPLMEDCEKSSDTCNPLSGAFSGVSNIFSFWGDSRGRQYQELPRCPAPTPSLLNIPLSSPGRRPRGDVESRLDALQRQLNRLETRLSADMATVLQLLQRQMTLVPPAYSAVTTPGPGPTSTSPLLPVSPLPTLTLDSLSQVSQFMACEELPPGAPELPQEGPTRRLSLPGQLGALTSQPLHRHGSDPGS
As to `Cc1nnc(SCC(=O)NC(C)c2ccccc2)[nH]c1=O` (stereo not drawn), the “hERG current change (%, negative = inhibition) at 10uM” value turned out to be 12%. `COC(=O)c1ccc(N=Cc2c(C(F)(F)F)[nH]n(C)c2=O)cc1`: the “hERG current change (%, negative = inhibition) at 10uM” value is -13.6%. In the case of `O=C(c1ccco1)N1CCN(C(=O)c2cn(-c3ccccc3)nc2-c2ccccc2)CC1` it was -86.5%. In the case of `COc1ccccc1N(CC(=O)NCc1ccc2c(c1)OCO2)C(=O)CCC(=O)Nc1nccs1`, the “hERG current change (%, negative = inhibition) at 10uM” value is given as 7.57%. Take `CCCCC(=O)Nc1cc(NC(=O)CCCC)cc(C(=O)O)c1`: the “hERG current change (%, negative = inhibition) at 10uM” value worked out at 10.4%. For the compound `CCCN(CC(=O)Nc1ccc(F)c(F)c1F)C(=O)c1ccc(=O)n(Cc2ccccc2)n1`, the “hERG current change (%, negative = inhibition) at 10uM” value is -15.1%.

Consider `O=C1[C@@H]2[C@@H]3C[C@@H]([C@H]4ON=C(c5ccc(OCc6ccccc6)cc5)[C@@H]34)[C@@H]2C(=O)N1c1ccc2c(c1)OCO2`, for which the “hERG current change (%, negative = inhibition) at 10uM” value was 12.4%. In the case of `O=C(O)c1ccc(-c2nc(-c3ccc(Cl)c(Cl)c3)cs2)cc1`, the “hERG current change (%, negative = inhibition) at 10uM” value is given as -19.4%. Regarding `CCOC(=O)COn1c(=O)c(-c2ccc(Br)cc2)[n+]([O-])c2ccccc21`, the “hERG current change (%, negative = inhibition) at 10uM” value was determined as 12.6%. In the case of `CCOc1cc(-c2nnc(NC(=O)C3=COCCO3)o2)cc(OCC)c1OCC` it was -23.4%; in that of `COc1ccc(NC(=O)CN(C)S(=O)(=O)c2ccccc2)cc1`, 2.13%; in that of `COc1ccc(C)cc1NC(=O)NC1CCCCCCC1`, 21%. For `CCN(CCO)c1ccc(N=Nc2cc(C)[nH]n2)cc1`, the “hERG current change (%, negative = inhibition) at 10uM” value came out at 10.6%. For the compound `C=CCOc1ccc(-c2nc3c(c(=O)[nH]c(=O)n3CCCC)n2C)cc1OC`, the “hERG current change (%, negative = inhibition) at 10uM” value was 31.8%.

On to `CC(C)(C#N)N([O-])C=C[N+](=O)C(C)(C)C#N`, for which the “hERG current change (%, negative = inhibition) at 10uM” value is 12%. Consider `CCC1CCCCN1CCCNC(=O)C1CCC(CNS(=O)(=O)c2c(C)cc(C)cc2C)CC1` (stereo not drawn), for which the “hERG current change (%, negative = inhibition) at 10uM” value is on record as -68.3%. In the case of `CN(Cc1cccc(Cl)c1)C(=O)C1CCC(=O)N(C2CC2)C1` (stereo not drawn) it was 1.31%; in that of `O=C(NC1CC1)C1CSC(c2cccnc2)=N1` (stereo not drawn), -12.5%; in that of `CC(C)Oc1ccc(/C(O)=C2/C(=O)C(=O)N(CCN(C)C)C2c2ccco2)cc1` (stereo not drawn), 14.9%. In the case of `Cc1nc2c(sc3nc4c(cc32)COC(C)(C)C4)c(=O)n1Cc1ccccc1` it was -10.6%; in that of `Cc1ccc(S(=O)(=O)NCC(=O)OC(C)C(=O)Nc2ncc(Cl)cc2Cl)cc1` (stereo not drawn), -13.6%; in that of `COc1ccc(Cl)cc1S(=O)(=O)N1CCC(C(=O)NCCc2ccccc2)CC1`, -9.13%.

With `CCc1nc2sc3c(c2c(=O)o1)CCCC3`, the “hERG current change (%, negative = inhibition) at 10uM” value worked out at 20.4%. For `COc1ccc(C(=O)N/N=C(\C)c2cccc(NC(=O)c3ccc(F)cc3)c2)c(OC)c1` the value was -40.1%.
